Test results taken from the supplement of paper PMC10126150.
Sequences with one replicate were seen in a single cluster, so their values are uncertain.

Tested on: ATP
Assay: switch fluorescence ratio, 500 uM ATP over buffer (Cy3 cluster intensity, sum of 5 cycles each) (fold (ratio)); higher = stronger signal-on switching upon ATP binding; sequences stand for … in TCGTCGGCAGCGTCAGATGTGTATAAGAGACAGTTTTTTTTTTTTTTTTTTTTTTTTT…TC
Conditions: aptamer strand: ATP DNA aptamer (quencher-CACCTGGGGGAGTATTGCGGAGGAAGG + anchor), 100 nM annealed; ATP concentration: 500 uM; one replicate
In short: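 Cy3-labelled switching-strand clusters on a modified Illumina MiSeq flow-cell were annealed to 100 nM quencher-labelled ATP aptamer, imaged in selection buffer, then imaged after 15 min with 500 uM ATP at 22 °C. Five buffer/ATP cycles ran, with NaOH stripping and re-annealing between them. The fluorescence ratio is summed target-cycle over summed buffer-cycle Cy3 intensity per cluster, averaged per switch-domain sequence. Clusters outside 100-1000 RFU were excluded.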
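Further: ATP exposure 15 min at 22 °C before imaging.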

Q: Which switch fluorescence ratio does the source give for CTTTTAGGTT here?
A: 0.946

Q: How did the switch fluorescence ratio turn out when CTTTTATGAG was run?
A: 1

Q: How did the switch fluorescence ratio turn out when CTTTTCCGTT was run?
A: 1.02

Q: For CTTTTGTAAC, which switch fluorescence ratio is on record?
A: 1.01

Q: For CTTTTTCAG, which switch fluorescence ratio is on record?
A: 0.985

Q: With CTTTTTTTCG as the sequence, how does the switch fluorescence ratio read?
A: 1.02

Q: How did the switch fluorescence ratio turn out when GAAAAACCGA was run?
A: 1.1

Q: How did the switch fluorescence ratio turn out when GAAAAACTGA was run?
A: 1.05

Q: For GAAAAAGAGC, which switch fluorescence ratio is on record?
A: 1.1

Q: How did the switch fluorescence ratio turn out when GAAAAAGAGT was run?
A: 0.97

Q: GAAAAATTCT was tested. Which switch fluorescence ratio did it give?
A: 1.04

Q: How did the switch fluorescence ratio turn out when GAAAACTTGA was run?
A: 1.02

Q: Which switch fluorescence ratio does the source give for GAAAAGCTGT here?
A: 0.952

Q: GAAAATCACG was tested. Which switch fluorescence ratio did it give?
A: 1.03

Q: For GAAAATGGCT, which switch fluorescence ratio is on record?
A: 1.06

Q: Which switch fluorescence ratio does the source give for GAAAATGGGG here?
A: 0.993

Q: For GAAAATTAAC, which switch fluorescence ratio is on record?
A: 1.07

Q: How did the switch fluorescence ratio turn out when GAAACAGCTA was run?
A: 1.05

Q: Which switch fluorescence ratio does the source give for GAAACCGTGT here?
A: 1.03

Q: For GAAACCTAGG, which switch fluorescence ratio is on record?
A: 1.05

Q: Which switch fluorescence ratio does the source give for GAAACCTCCA here?
A: 1.51

Q: How did the switch fluorescence ratio turn out when GAAACCTGTT was run?
A: 0.944

Q: How did the switch fluorescence ratio turn out when GAAACTAGGA was run?
A: 1.03

Q: With GAAACTCGCC as the sequence, how does the switch fluorescence ratio read?
A: 1.1

Q: GAAAGATGCT was tested. Which switch fluorescence ratio did it give?
A: 0.961

Q: With GAAAGGCGTG as the sequence, how does the switch fluorescence ratio read?
A: 1.01

Q: For GAAAGTAGGT, which switch fluorescence ratio is on record?
A: 0.966

Q: Which switch fluorescence ratio does the source give for GAAAGTTTTA here?
A: 1.03

Q: GAAATAAACT was tested. Which switch fluorescence ratio did it give?
A: 1.02

Q: How did the switch fluorescence ratio turn out when GAAATACGAT was run?
A: 1.13

Q: GAAATAGTAA was tested. Which switch fluorescence ratio did it give?
A: 0.998

Q: GAAATATAAA was tested. Which switch fluorescence ratio did it give?
A: 1.02

Q: For GAAATATACG, which switch fluorescence ratio is on record?
A: 1.03

Q: GAAATCCTGG was tested. Which switch fluorescence ratio did it give?
A: 1.02

Q: GAAATCCTTT was tested. Which switch fluorescence ratio did it give?
A: 0.996

Q: For GAAATCGATG, which switch fluorescence ratio is on record?
A: 1.06

Q: How did the switch fluorescence ratio turn out when GAAATGGGCC was run?
A: 1.04

Q: For GAAATTACGT, which switch fluorescence ratio is on record?
A: 1.04

Q: GAAATTGGTC was tested. Which switch fluorescence ratio did it give?
A: 1.04

Q: How did the switch fluorescence ratio turn out when GAAATTTA was run?
A: 0.981

Q: With GAACAAAGAT as the sequence, how does the switch fluorescence ratio read?
A: 1.02

Q: Which switch fluorescence ratio does the source give for GAACAAAGGC here?
A: 1.02

Q: With GAACACACCG as the sequence, how does the switch fluorescence ratio read?
A: 1.19

Q: How did the switch fluorescence ratio turn out when GAACAGAGCA was run?
A: 1.02

Q: Which switch fluorescence ratio does the source give for GAACATAAAC here?
A: 1.02

Q: With GAACATAAGT as the sequence, how does the switch fluorescence ratio read?
A: 1.08

Q: With GAACATGTCT as the sequence, how does the switch fluorescence ratio read?
A: 0.96

Q: GAACATTGGG was tested. Which switch fluorescence ratio did it give?
A: 1

Q: How did the switch fluorescence ratio turn out when GAACCCATCA was run?
A: 1

Q: For GAACCGGGGT, which switch fluorescence ratio is on record?
A: 0.924

Q: For GAACCTATAT, which switch fluorescence ratio is on record?
A: 1.05

Q: How did the switch fluorescence ratio turn out when GAACGCACGG was run?
A: 1.28

Q: With GAACGCCTTT as the sequence, how does the switch fluorescence ratio read?
A: 1

Q: GAACGGAGGT was tested. Which switch fluorescence ratio did it give?
A: 0.993

Q: Which switch fluorescence ratio does the source give for GAACGGCCAA here?
A: 1.05

Q: For GAACGGGGCT, which switch fluorescence ratio is on record?
A: 0.973

Q: How did the switch fluorescence ratio turn out when GAACGTGTAG was run?
A: 1.01

Q: How did the switch fluorescence ratio turn out when GAACTAAGGT was run?
A: 1

Q: For GAACTGCCCA, which switch fluorescence ratio is on record?
A: 0.982

Q: For GAACTGGAGC, which switch fluorescence ratio is on record?
A: 1.05

Q: With GAACTTAGAA as the sequence, how does the switch fluorescence ratio read?
A: 1.02

Q: How did the switch fluorescence ratio turn out when GAACTTGGGT was run?
A: 1.05

Q: Which switch fluorescence ratio does the source give for GAAGAATTGG here?
A: 0.995

Q: For GAAGACCACC, which switch fluorescence ratio is on record?
A: 1.2

Q: For GAAGAGCATA, which switch fluorescence ratio is on record?
A: 1.1

Q: GAAGAGCTTG was tested. Which switch fluorescence ratio did it give?
A: 0.994

Q: Which switch fluorescence ratio does the source give for GAAGCAAAGT here?
A: 0.997

Q: For GAAGCCCATA, which switch fluorescence ratio is on record?
A: 1.02

Q: GAAGCCGTTG was tested. Which switch fluorescence ratio did it give?
A: 0.987

Q: With GAAGCTGCT as the sequence, how does the switch fluorescence ratio read?
A: 0.874

Q: Which switch fluorescence ratio does the source give for GAAGGATAAC here?
A: 1.06

Q: With GAAGGATGGG as the sequence, how does the switch fluorescence ratio read?
A: 0.954

Q: GAAGGATTTG was tested. Which switch fluorescence ratio did it give?
A: 1.04

Q: GAAGGATTTT was tested. Which switch fluorescence ratio did it give?
A: 0.95

Q: With GAAGGCTAGG as the sequence, how does the switch fluorescence ratio read?
A: 1.01

Q: With GAAGGCTTCG as the sequence, how does the switch fluorescence ratio read?
A: 0.957

Q: For GAAGGGTTGC, which switch fluorescence ratio is on record?
A: 0.974

Q: How did the switch fluorescence ratio turn out when GAAGGTCTAT was run?
A: 0.998

Q: With GAAGTACCCG as the sequence, how does the switch fluorescence ratio read?
A: 1.11

Q: How did the switch fluorescence ratio turn out when GAAGTATTTG was run?
A: 0.95

Q: Which switch fluorescence ratio does the source give for GAAGTCATGA here?
A: 1.01

Q: For GAAGTCGTCT, which switch fluorescence ratio is on record?
A: 1.02

Q: GAAGTGAACA was tested. Which switch fluorescence ratio did it give?
A: 1.01

Q: With GAAGTGAGTC as the sequence, how does the switch fluorescence ratio read?
A: 0.978

Q: GAAGTGGACA was tested. Which switch fluorescence ratio did it give?
A: 1.03
